Test results: the supplement of paper PMC4996465
Viability of KB3-1 and Nalm-6 cells after 48 h of drug alone (CellTiter-Glo), 11 doses over about 4.5 log units. % of DMSO wells, lower = more cell loss; AC50 from the fitted curve, lower = more potent. No active / inactive call. Nalm-6 was screened in two runs. AC50 is listed only for well-fitted inhibitory curves. KB3-1 is a HeLa-derived carcinoma line, Nalm-6 a B-cell precursor leukaemia line.

Tests used:
KB3-1 [1] = assay: viability (% of DMSO control); higher = more viable cells
Description: (§1)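 Eleven-dose screen of the NCATS MIPE 3 library on cells without co-treatment; CellTiter-Glo after 48 h, as % of DMSO wells.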

Nalm-6 [2] = assay: as above
Description: as §1

KB3-1 [3] = assay: log AC50 of viability decrease (48 h) (log10 M); higher = less potent
Description: (§2)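 Eleven-dose screen of the NCATS MIPE 3 library on cells without co-treatment; CellTiter-Glo after 48 h. AC50 from the curve fit; only inhibitory curves of the better fit classes are listed.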

Nalm-6 [4] = assay: as above
Description: as §2

ClC/1=C(NCCN2CCOCC2)/C(=O)C3=C(C=CC=N3)C1=O [DA-3003-1]
viability (KB3-1 [1]; 0.00078 µM): 95.6% | viability (KB3-1 [1]; 0.00234 µM): 103% | viability (KB3-1 [1]; 0.00702 µM): 99.5% | viability (KB3-1 [1]; 0.0211 µM): 104% | viability (KB3-1 [1]; 0.0632 µM): 102% | viability (KB3-1 [1]; 0.19 µM): 108% | viability (KB3-1 [1]; 0.569 µM): 102% | viability (KB3-1 [1]; 1.71 µM): 98.6% | viability (KB3-1 [1]; 5.12 µM): 81.2% | viability (KB3-1 [1]; 15.4 µM): 44.6% | viability (KB3-1 [1]; 46.1 µM): 2.66% | viability (Nalm-6 [2]; run: 1, 0.00078 µM): 92.4% | viability (Nalm-6 [2]; run: 1, 0.00234 µM): 99.2% | viability (Nalm-6 [2]; run: 1, 0.00702 µM): 105% | viability (Nalm-6 [2]; run: 1, 0.0211 µM): 114% | viability (Nalm-6 [2]; run: 1, 0.0632 µM): 106% | viability (Nalm-6 [2]; run: 1, 0.19 µM): 118% | viability (Nalm-6 [2]; run: 1, 0.569 µM): 109% | viability (Nalm-6 [2]; run: 1, 1.71 µM): 78.6% | viability (Nalm-6 [2]; run: 1, 5.12 µM): 5.57% | viability (Nalm-6 [2]; run: 1, 15.4 µM): 5.56% | viability (Nalm-6 [2]; run: 1, 46.1 µM): 1.23% | viability (Nalm-6 [2]; run: 2, 0.00078 µM): 106% | viability (Nalm-6 [2]; run: 2, 0.00234 µM): 104% | viability (Nalm-6 [2]; run: 2, 0.00702 µM): 103% | viability (Nalm-6 [2]; run: 2, 0.0211 µM): 110% | viability (Nalm-6 [2]; run: 2, 0.0632 µM): 108% | viability (Nalm-6 [2]; run: 2, 0.19 µM): 101% | viability (Nalm-6 [2]; run: 2, 0.569 µM): 87.5% | viability (Nalm-6 [2]; run: 2, 1.71 µM): 75.6% | viability (Nalm-6 [2]; run: 2, 5.12 µM): 2.96% | viability (Nalm-6 [2]; run: 2, 15.4 µM): 3.24% | viability (Nalm-6 [2]; run: 2, 46.1 µM): 1.16% | log AC50 of viability decrease (KB3-1 [3]): -4.83 | log AC50 of viability decrease (Nalm-6 [4]; run: 1): -5.68 | log AC50 of viability decrease (Nalm-6 [4]; run: 2): -5.63

CNC(=O)c1cc(Oc2ccc(NC(=O)Nc3cc(C(C)(C)C)nn3-c3ccc4ncccc4c3)c(F)c2)ccn1 [DCC-2036]
viability (KB3-1 [1]; 0.00078 µM): 106% | viability (KB3-1 [1]; 0.00234 µM): 105% | viability (KB3-1 [1]; 0.00702 µM): 102% | viability (KB3-1 [1]; 0.0211 µM): 108% | viability (KB3-1 [1]; 0.0632 µM): 102% | viability (KB3-1 [1]; 0.19 µM): 107% | viability (KB3-1 [1]; 0.569 µM): 106% | viability (KB3-1 [1]; 1.71 µM): 104% | viability (KB3-1 [1]; 5.12 µM): 110% | viability (KB3-1 [1]; 15.4 µM): 88.1% | viability (KB3-1 [1]; 46.1 µM): 13.8% | viability (Nalm-6 [2]; run: 1, 0.00078 µM): 116% | viability (Nalm-6 [2]; run: 1, 0.00234 µM): 123% | viability (Nalm-6 [2]; run: 1, 0.00702 µM): 130% | viability (Nalm-6 [2]; run: 1, 0.0211 µM): 114% | viability (Nalm-6 [2]; run: 1, 0.0632 µM): 114% | viability (Nalm-6 [2]; run: 1, 0.19 µM): 97.4% | viability (Nalm-6 [2]; run: 1, 0.569 µM): 95.5% | viability (Nalm-6 [2]; run: 1, 1.71 µM): 83.8% | viability (Nalm-6 [2]; run: 1, 5.12 µM): 26.7% | viability (Nalm-6 [2]; run: 1, 15.4 µM): 11.8% | viability (Nalm-6 [2]; run: 1, 46.1 µM): 2.98% | viability (Nalm-6 [2]; run: 2, 0.00078 µM): 110% | viability (Nalm-6 [2]; run: 2, 0.00234 µM): 111% | viability (Nalm-6 [2]; run: 2, 0.00702 µM): 116% | viability (Nalm-6 [2]; run: 2, 0.0211 µM): 113% | viability (Nalm-6 [2]; run: 2, 0.0632 µM): 109% | viability (Nalm-6 [2]; run: 2, 0.19 µM): 107% | viability (Nalm-6 [2]; run: 2, 0.569 µM): 94.9% | viability (Nalm-6 [2]; run: 2, 1.71 µM): 91% | viability (Nalm-6 [2]; run: 2, 5.12 µM): 70.8% | viability (Nalm-6 [2]; run: 2, 15.4 µM): 8.43% | viability (Nalm-6 [2]; run: 2, 46.1 µM): 3.07% | log AC50 of viability decrease (KB3-1 [3]): -4.63 | log AC50 of viability decrease (Nalm-6 [4]; run: 1): -5.58 | log AC50 of viability decrease (Nalm-6 [4]; run: 2): -5.18

CCCCCN(CCC12CC3CC(CC(C3)C1)C2)C(=O)NCCCc1ccncc1 [DE-096]
viability (KB3-1 [1]; 0.00078 µM): 102% | viability (KB3-1 [1]; 0.00234 µM): 102% | viability (KB3-1 [1]; 0.00702 µM): 98.6% | viability (KB3-1 [1]; 0.0211 µM): 93.4% | viability (KB3-1 [1]; 0.0632 µM): 101% | viability (KB3-1 [1]; 0.19 µM): 103% | viability (KB3-1 [1]; 0.569 µM): 98.8% | viability (KB3-1 [1]; 1.71 µM): 93.4% | viability (KB3-1 [1]; 5.12 µM): 95.5% | viability (KB3-1 [1]; 15.4 µM): 84% | viability (KB3-1 [1]; 46.1 µM): 1.38% | viability (Nalm-6 [2]; run: 1, 0.00078 µM): 106% | viability (Nalm-6 [2]; run: 1, 0.00234 µM): 104% | viability (Nalm-6 [2]; run: 1, 0.00702 µM): 96.9% | viability (Nalm-6 [2]; run: 1, 0.0211 µM): 93.2% | viability (Nalm-6 [2]; run: 1, 0.0632 µM): 75.4% | viability (Nalm-6 [2]; run: 1, 0.19 µM): 65.2% | viability (Nalm-6 [2]; run: 1, 0.569 µM): 16.8% | viability (Nalm-6 [2]; run: 1, 1.71 µM): 2.46% | viability (Nalm-6 [2]; run: 1, 5.12 µM): -0.869% | viability (Nalm-6 [2]; run: 1, 15.4 µM): -1.27% | viability (Nalm-6 [2]; run: 1, 46.1 µM): -1.86% | viability (Nalm-6 [2]; run: 2, 0.00078 µM): 97.9% | viability (Nalm-6 [2]; run: 2, 0.00234 µM): 104% | viability (Nalm-6 [2]; run: 2, 0.00702 µM): 111% | viability (Nalm-6 [2]; run: 2, 0.0211 µM): 104% | viability (Nalm-6 [2]; run: 2, 0.0632 µM): 104% | viability (Nalm-6 [2]; run: 2, 0.19 µM): 104% | viability (Nalm-6 [2]; run: 2, 0.569 µM): 117% | viability (Nalm-6 [2]; run: 2, 1.71 µM): 102% | viability (Nalm-6 [2]; run: 2, 5.12 µM): 94.7% | viability (Nalm-6 [2]; run: 2, 15.4 µM): 32% | viability (Nalm-6 [2]; run: 2, 46.1 µM): 1.5% | log AC50 of viability decrease (KB3-1 [3]): -4.63 | log AC50 of viability decrease (Nalm-6 [4]; run: 1): -6.63 | log AC50 of viability decrease (Nalm-6 [4]; run: 2): -4.93
